# Laboratory results reported in article PMC4336329 (PLoS ONE, 2015).
# Out of some 310,000 compounds screened, about 14,000 (4.5%) showed an effect of 50% or more. Effects have a minus sign here. The list shows a part of the results.
# Target: human ether-à-go-go-related gene (hERG) potassium channel (human, UniProt Q12809)
# Test: primary screen, population patch clamp on CHO cells stably expressing hERG
# 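Further: peak tail current of the secondary pulse compared with the same well before compound.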
# Chain of human ether-à-go-go-related gene (hERG) potassium channel (Q12809 whole entry, looked up): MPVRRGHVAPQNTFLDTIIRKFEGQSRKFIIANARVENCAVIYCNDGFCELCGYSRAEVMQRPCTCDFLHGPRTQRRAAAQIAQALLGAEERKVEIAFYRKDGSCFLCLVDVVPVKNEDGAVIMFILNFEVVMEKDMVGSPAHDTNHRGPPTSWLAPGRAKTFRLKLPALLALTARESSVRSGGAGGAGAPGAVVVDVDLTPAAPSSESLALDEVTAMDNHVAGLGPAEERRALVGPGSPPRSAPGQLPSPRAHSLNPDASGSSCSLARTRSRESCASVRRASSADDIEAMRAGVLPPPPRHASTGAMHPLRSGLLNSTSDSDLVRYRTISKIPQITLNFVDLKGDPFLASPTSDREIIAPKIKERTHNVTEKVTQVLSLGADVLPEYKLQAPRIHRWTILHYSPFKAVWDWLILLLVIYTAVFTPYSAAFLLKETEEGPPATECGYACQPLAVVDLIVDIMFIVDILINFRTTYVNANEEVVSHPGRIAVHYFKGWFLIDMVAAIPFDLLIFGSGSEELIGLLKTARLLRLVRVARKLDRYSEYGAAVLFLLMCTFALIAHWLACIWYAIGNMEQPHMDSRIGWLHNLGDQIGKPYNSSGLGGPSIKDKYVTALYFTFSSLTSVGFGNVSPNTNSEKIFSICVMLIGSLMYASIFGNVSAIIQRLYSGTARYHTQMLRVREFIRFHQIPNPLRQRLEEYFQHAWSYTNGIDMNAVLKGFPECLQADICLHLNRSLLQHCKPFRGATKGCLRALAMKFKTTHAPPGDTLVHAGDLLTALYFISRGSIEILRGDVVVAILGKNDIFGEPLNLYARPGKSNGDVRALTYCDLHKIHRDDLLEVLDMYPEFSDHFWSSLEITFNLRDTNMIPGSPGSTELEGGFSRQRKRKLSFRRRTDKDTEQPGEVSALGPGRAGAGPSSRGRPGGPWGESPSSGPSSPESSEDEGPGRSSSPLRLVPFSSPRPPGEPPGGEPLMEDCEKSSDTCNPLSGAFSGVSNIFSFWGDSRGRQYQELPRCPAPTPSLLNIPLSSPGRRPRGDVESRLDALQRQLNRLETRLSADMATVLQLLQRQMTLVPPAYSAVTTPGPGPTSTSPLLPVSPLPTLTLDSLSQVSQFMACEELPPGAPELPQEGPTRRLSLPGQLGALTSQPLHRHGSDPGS
row,Structure (SMILES),"hERG current change (%, negative = inhibition) at 10uM"
1,CC(C)CNS(=O)(=O)c1ccccc1C(=O)N1CCCCC1,-0.884%
2,O=c1c([N+](=O)[O-])c(NCCN2CCCCCC2)c2ccccc2n1-c1ccccc1,-3.63%
3,CCCC(=O)Nc1nn(C)c2nc3c(C)cccc3cc12,-7.99%
4,CC1(C)CC(=O)C(C2C3=C(CC(C)(C)CC3=O)OC3=C2C(=O)CC(C)(C)C3)=C(O)C1,0.256%
5,COc1cc(SC)ccc1C(=O)NCCOc1ccc(C)c(C)c1,-9.71%
6,O=C(COc1ccc([N+](=O)[O-])cc1)Nc1ccc2c(c1)CCC2,-41.3%
7,c1ccc(CCNc2ccc3nncn3n2)cc1,7.69%
8,CC1(C)CC(=O)C2=C(C1)OC(=O)C2(NC(=O)c1cccs1)C(F)(F)F (centres unmarked),7.01%
9,CNC(=O)C1CCN(S(=O)(=O)c2c(C)noc2/C=C/c2ccccc2F)CC1,11.4%
10,FC(F)Oc1ccc(C2N=C(c3ccccc3)NO2)cc1 (centres unmarked),-25.2%
11,COc1cccc(NC(=O)COc2ccc(S(=O)(=O)NC(C)C)cc2)c1,9.26%
12,COc1ccccc1CNC(=O)c1cc(=O)c2ccccc2o1,0.798%
13,O=C(Cn1c(=O)sc2ccccc21)NCCOc1ccccc1F,4.46%
14,Cc1ccc(-c2n[nH]c(=S)n2/N=C/c2cccn2C)cc1,16%
15,Brc1ccc2c(c1)OCCOCCOCCOCCOCCOCCO2,-70.8%
16,COc1ccc(N(C)S(=O)(=O)c2cccc(C(=O)Nc3nnc(C)s3)c2)cc1,-3.56%
17,CC1CC(C)CN(C(=O)c2nn(C)c3c2CS(=O)(=O)c2ccccc2-3)C1 (centres unmarked),-12.7%
18,c1csc(-c2nc3c4ccccc4c4ccccc4c3[nH]2)c1,6.64%
19,CC/C(=N\N=C1\SC(C)C(=O)N1Cc1ccco1)c1ccccc1 (centres unmarked),4.18%
20,Cc1cc(C(F)(F)F)n(-c2nc(C(=O)NNS(=O)(=O)c3ccccc3[N+](=O)[O-])cs2)n1,-1.01%
21,Cc1cc(C2=NNC(=NC3CCCCC3)SC2)c(C)n1-c1c(C)n(C)n(-c2ccccc2)c1=O,14%
22,Nc1c(C(=O)NC2CCCC2)c2nc3ccccc3nc2n1/N=C/c1cccnc1,-4.32%
23,O=c1cnc2ccccc2n1Cc1ccccc1C(F)(F)F,18.5%

row,Structure (SMILES),"hERG current change (%, negative = inhibition) at 10uM"
1,O=C(/C=C/c1ccccc1Cl)NCc1ccco1,-21.8%
2,COc1ccccc1/C=C1\N=C(C(C)(C)C)OC1=O,1.88%
3,Cc1nc2sc(C(c3ccccc3)N3CCN(C)CC3)c(O)n2n1 (centres unmarked),-6.85%
4,CC(C)(C)c1ccc(C(=O)NNc2cc(N3CCOCC3)nc(N3CCOCC3)n2)cc1,-11.6%
5,CC/C(C)=N/Nc1cccc([N+](=O)[O-])c1,23%
6,Clc1ccc(CSc2nnc(-c3sccc3-n3cccc3)o2)cc1,-3.91%
7,Cc1cccc(C)c1-n1c(SCC(=O)Nc2ccc(C(=O)O)cc2)nnc1-c1cccc(S(=O)(=O)N(C)C)c1,15.1%
8,CC(C)Cc1nnc(NC(=O)CCC(=O)N2CCN(S(=O)(=O)c3ccccc3)CC2)s1,0.00048%
9,O=C(O)C(Cc1ccccc1)N1CCS(=O)(=O)CC1 (centres unmarked),6.07%
10,O=C(O)c1ccccc1-n1cnnn1,-7.79%
11,CN(C)c1ccc(C(=S)NC2CCCCC2)cc1,16.3%
12,O=c1[nH]c(=O)n(-c2ccccc2)c(O)c1/C=C/C=Nc1ccccc1,13.9%
13,O=C1c2cccc(OCC(=O)N3CCCc4ccccc43)c2CCN1Cc1ccc(Br)cc1,6.7%
14,CC(C)(C)c1nnc2sc(SCC(=O)c3ccccc3)nn2c1=O,1.34%
15,CCOc1ccc(C(=O)Nc2cccc(C(=O)O)c2)cc1Cl,9.32%
16,CCOc1c2ccc(C(=O)N[C@H](C)C3CCCCC3)cc2nn1CC,-9.54%
17,CC1CCCN(CC(O)CN)C1 (centres unmarked),17.3%
18,Cc1nc(-c2coc3cc(C)c(N=O)c(O)c3/c2=N\N)cs1,10.2%
19,CC1=CC(C)C(C(=O)O)C(C(=O)N2CCN(C)CC2)C1 (centres unmarked),26.3%
20,NNC(=O)c1cc(-c2ccco2)[nH]n1,10.5%
21,CN1CCN(S(=O)(=O)c2ccc([N+](=O)[O-])cc2)CC1,-14.6%
22,COc1ccccc1CC(=O)NCc1ccc2c(c1)OCO2,24.2%
23,O=C(c1cc(-c2ccccc2)nn1-c1ccccc1)N1CCN(S(=O)(=O)c2ccc(F)cc2)CC1,-7.73%

row,Structure (SMILES),"hERG current change (%, negative = inhibition) at 10uM"
1,CC(=O)N(CCC1(C(C)C)CCOC(C)(C)C1)Cc1ccco1 (centres unmarked),-4.98%
2,COc1ccc(C(=O)N/C(=C\c2ccccc2)C(=O)NC(CC(C)C)C(=O)O)cc1 (centres unmarked),30.7%
3,COc1ccc(-c2nc(C#N)c(N3CCOCC3)o2)cc1OC,-7.47%
4,O=C(CSc1ccc2nnc(CCNC(=O)c3ccccc3)n2n1)Nc1ccccc1,-10.9%
5,COc1ccc(-c2ncnc(C(F)(F)F)c2-c2csc(C)n2)c(O)c1,-2.45%
6,C[C@H]1CN=C(Nc2ccccc2)N1CCCC1CCCC1,-58.7%
7,CCOc1cc(C(=O)OCC(=O)NC(C)c2ccccc2)ccc1OCC(=O)N1CCOCC1 (centres unmarked),2.42%
8,COc1ccc(C2=Nc3cccc4cccc(c34)N2)cc1,9.66%
9,O=C(Nc1ccnn1C1CCN(Cc2ccc3nonc3c2)CC1)c1cccc(F)c1,-37.4%
10,CN(C(=O)c1ccc(NC(=O)Cc2ccc(NC(=O)C3CCCN(C(=O)CCc4ccccc4)C3)cc2)cc1)C1CC1 (centres unmarked),2.3%
11,Cc1n[nH]c(=O)c2c(NC(=O)CSc3nnc(C4CC4)n3C)oc(C)c12,3.25%
12,Cc1ccc(-c2nsc(SCC(=O)NCC3CCCO3)n2)cc1 (centres unmarked),-6.67%
13,COC(=O)C(Cc1cccc(C)n1)(c1ccccc1)c1ccccc1,3.7%
14,CCOC(=O)c1[nH]c2ccccc2c1NC(=O)c1ccc2c(c1)OCO2,-9.76%
15,CN(C(=O)CSc1ncccc1C(=O)O)c1ccccc1,-3.26%
16,COc1ccccc1NS(=O)(=O)c1cccc(C(=O)N/N=C/c2ccc3c(c2)OCCO3)c1,-16.3%
17,CCc1nc2ccccc2n1CCc1ccccc1.Cl,-16.6%
18,Cc1cccc(N2CCN(S(=O)(=O)c3cccc4nonc34)CC2)c1C,14.7%
19,Cc1ccccc1NC(=O)OCc1cn(-c2ccc(Cl)cc2)nn1,-7.61%
20,CCOC(=O)c1snc2c(=O)[nH]cnc12,6.6%
21,COc1ccc(C2CC(c3ccc(Br)cc3)=NN2C(=O)CSC2=NN3CCCC(=O)N=C3S2)cc1 (centres unmarked),21.3%
22,CCC(Cc1ccccc1)NC(=O)CN1C(=O)CSc2ncccc21 (centres unmarked),0.337%
23,CC(=O)Nc1ccc(NC(=O)Cc2ccc(S(=O)(=O)N3CCCCC3)s2)cc1,-2.44%

row,Structure (SMILES),"hERG current change (%, negative = inhibition) at 10uM"
1,Cc1nnc(SCc2ccccc2Cl)n(N)c1=O,-9.65%
2,COc1cccc2c1O/C(=N\O)C(C(=O)Nc1ccc(C)cc1)C2 (centres unmarked),1.46%
3,Cc1ccc(C(=O)Nc2ccccc2C(=O)O)cc1S(=O)(=O)Nc1ccccc1,12.5%
4,CCOc1ncccc1C(=O)Nc1nnc(C(CC)CC)s1,-29.8%
5,CCOP(=O)(OCC)C(NC(=O)c1cccs1)c1ccccc1 (centres unmarked),23.5%
6,Cc1nn(C)cc1NC(=O)Cn1nc(C(F)(F)F)cc1C1CC1,26.2%
7,CC1CCC2C(C1)Nc1c(C(=O)O)cccc1C2(C)C (centres unmarked),49.3%
8,Cc1nc2ccc(Br)cc2c2c1CC(CBr)O2 (centres unmarked),-26.8%
9,COc1ccc(C(=O)c2c3ccc(C(F)(F)F)cc3[n+]([O-])n2CCCC(N)=O)cc1,-51.6%
10,CCOc1ccccc1N1CCN(C(=O)c2cc(C)oc2C)CC1,5.3%
11,COc1ccccc1CCC(=O)OCC(=O)NC1CCCCC1,14.9%
12,Cc1cccc(NS(=O)(=O)c2cccc(C(=O)N3CC(C)OC(C)C3)c2)c1 (centres unmarked),3.98%
13,Cc1ccc(NC(=O)c2cc(-c3ccc(C)o3)nc3ccccc23)cc1,4.86%
14,CCOC(=O)c1ccc(NC(=O)CC2C(=O)N(c3cccc(OC)c3)C(=O)N2CCOC)cc1 (centres unmarked),-21.2%
15,CC1CCN(C(=O)COC(=O)c2ccc(N3CCCC3=O)cc2)CC1,0.0308%
16,O=C(/C=C/c1cccs1)NC1CCS(=O)(=O)C1 (centres unmarked),25.6%
17,CCOc1ccc(-n2c(N)c(C(=O)NCc3ccco3)c3nc4ccccc4nc32)cc1,-4.43%
18,COc1ccc(S(=O)(=O)N(CC(=O)N2CCN(C)CC2)c2ccc(C)cc2)cc1OC,-11%
19,FC(F)(F)c1cccc(Nc2cc(-c3ccccc3)nc3ncnn23)c1,13.5%
20,CCN1CCN(C(=O)c2nn(-c3ccc(C)cc3)c(=O)c3c2c2ccccc2n3C)CC1,7.15%
